# Results as given in the supplement of paper PMC11417369.
# ± gives the standard deviation of the averaged measurements. This is one part of the list.
# System: PfAP2-I AP2 domain 3 (GST-tagged)
# Assay: gcPBM binding intensity (ln(normalized median fluorescence intensity)); higher = stronger DNA binding
# How it was run: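 After 1 h on an Agilent 4 × 180k array of primer-extended double-stranded 36-bp intergenic genomic probes and negative controls, bound GST-tagged P. falciparum DNA-binding domains were detected with Alexa488 anti-GST antibody and scanned at 488 nm. The domains had been expressed in E. coli, and binding took place in 1× PBS with 1% milk, 0.2 mg/ml BSA, 0.5% salmon testes DNA and 0.03% Triton X-100. Binding intensity is the highest Masliner-normalised natural-log median intensity across replicate spots of either probe orientation.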
row,Sequence,gcPBM binding intensity (ln)
1,TGTACACCCAGAAATGCACACACATATATATATATA [CACACA_site8716],9.54 ± 0.18
2,ATATATATATCACGCACACACGAATTTTAAATATAT [CACACA_site5691],9.15 ± 0.13
3,TTATTTTTACAATTTTAATAATAATACTAAAACAAA [XGTACX_negctrl_site538],7.39 ± 0.38
4,TCTTTTGCCCAAAAAGGTACACACCACAATTTAAAT [XGTACX_site1482],8.26 ± 0.53
5,TATTGTATGGTAGGATATGATGTTATTTGTTATAAT [CACACA_negctrl_site202],7.71 ± 0.67
6,ATACATATATATATATGTACATATGCACATATATAC [XGTACX_site7209],8.45 ± 0.39
7,TTCTATATAATTCAAACATGCACAGGAAATATTATA [TGCATGCA_site290],9.19 ± 0.49
8,AACAATGTTTTCTTGTGTACACATCATTAAAGAAAA [XGTACX_site4726],8.36 ± 0.071
9,ATAATATATATATATACGCACACTTATGTACGGATT [CACACA_site2120],8.35 ± 0.26
10,AAGAAAAAAGGGGACAAGGCATATCTATATATACAT [TGCATGCA_negctrl_site172],7.83 ± 0.67
11,TATGTAACACATACTTGTACATATATAATTTTTTTA [XGTACX_site6251],7.33 ± 0.28
12,ATTTATTAACCATATACACACATATATTTGTATTTA [CACACA_site6744],7.87 ± 0.59
13,ATAGTATCTGGTAGCTGTACGAGTCGTAGAGTGCAG [XGTACX_site2020],8.3 ± 0.53
14,TTCCCTAATATTTGTTGTACTTGTTATATTTTTTTT [XGTACX_site5994],8.17 ± 0.57
15,TATATTTGTAAGAAGAGTACTAAAAAAAGAATAAAG [XGTACX_site8704],8.19 ± 0.67
16,ATATATATATATATATGTACGTACTCAGTTATGCCT [XGTACX_site453],9.29 ± 0.32
17,TTTATTTATTATTGTTGTACACTTTTTATAAAAAAA [XGTACX_site5114],8.29 ± 0.39
18,ATGTATATAATATTATGTACATATATGAAATATTTT [XGTACX_site8168],7.66 ± 0.38
19,ATAAGAAAAGGACACACACACAAAAAAAAAAAAAAA [CACACA_site7351],8.1 ± 0.38
20,TGTTCTTATTTTATAAGCATATAATTAATCATAATG [CACACA_negctrl_site1493],7.44 ± 0.47
21,TAGTTTTTTATAAAATTATTTATATAAAGGTAAAAA [CACACA_negctrl_site490],7.87 ± 0.52
22,AATATATTATAATATACACACATATATGCTCTTTAA [CACACA_site4131],7.94 ± 0.58

row,Sequence,gcPBM binding intensity (ln)
1,ATATATTATATATATTTTAAGTAATTTGCAAAAAAT [GTGCAC_negctrl_site361],7.81 ± 0.4
2,ATTTAAAAGAAATAATGTACGAATCATATTTGATAT [XGTACX_site1785],7.71 ± 0.54
3,GGAATACAGGAAAAAAGTACAGAAAATGGAATATTA [XGTACX_site5053],7.88 ± 0.61
4,TTTAATTTGTTATACACACACAAAAAAAGTTATAAA [CACACA_site7779],7.79 ± 0.33
5,TCTTTCTTATATTTATATAATTATATTTATTTTATA [GTGCAC_negctrl_site300],7.84 ± 0.66
6,ATATAATGTTATAGAAGTACATGAAATACTTATTTA [XGTACX_site8850],7.45 ± 0.28
7,AAAATAAAATAACGTTGTACAACATCATTTCTATAT [XGTACX_site5080],7.72 ± 0.42
8,AACAATATATTGAATAGTACATATATATAAACATAT [XGTACX_site2811],7.62 ± 0.45
9,AACATTTATAAATATTGTACATATAGATTTATATAT [XGTACX_site2662],7.67 ± 0.44
10,TGTTTAAAGGAAAAGGAGTAGTCTATTATATTATCT [CACACA_negctrl_site858],7.74 ± 0.48
11,GTATCTCATTATTCGTGTACTAAACACATAAAAATA [XGTACX_site2262],8.51 ± 0.3
12,ATCTATATCTATAATACACACTAAAGTAACAGAATA [CACACA_site7370],7.95 ± 0.42
13,GATTTACAACACGAACGTACAGAACAAAAAGGAAAA [XGTACX_site6501],8.15 ± 0.58
14,AATGTAAAAGTAAACACACACATATATATATACATA [CACACA_site2484],7.68 ± 0.54
15,TATAAAAATAAAAAAAGTACACATAAAAATATATAT [XGTACX_site5189],8.14 ± 0.3
16,CATATATACACATACACACACACACGGACACGCACA [CACACA_site6910],8.37 ± 0.35
17,TATTGTATTTAATAAACACACAATATTAAAAATATA [CACACA_site4725],7.43 ± 0.33
18,ATACACATATATGTGTGTACTCACCTTTTAATATGA [XGTACX_site4349],7.87 ± 0.27
19,TATATATTCAAATGTGCATGTAAAAAAAAAAAAAAG [TGCATGCA_site126],8.58 ± 0.4
20,ATAAAAAACTCAGAGCGTACATAATTTTTTCTATTT [XGTACX_site2803],7.64 ± 0.54
21,TAACCATACATACATACACACACACCCACATATATA [CACACA_site8951],8.11 ± 0.18
22,GGCATATATATATGCACACATACATAAATACATGTG [CACACA_site5999],9.54 ± 0.25
